Measurements from a collection of fitness landscapes (doi:10.1016/j.celrep.2020.107928).
The full ranking holds about 81,000 sequences; the median of “one-hybrid fitness for binding NBS DNA” is about -0.1, and the highest 2% start at about 0.36. The list shows a part of the results.

B1: Caulobacter ParB omega fusion; a variant is named by its letters at X, in order, B8GW30 (parent)
chain: MESVVVGEPGMSEGRRGLGRGLSALLGEVDAAPAQAPGEQLGGSREAPIEILQRNPDQPRRTFREEDLEDLSNSIREKGVLQPILVRPSPDTAGEYQIVAGERAWRAAQRAGLKTVPIMVRELDDLAVLEIGIIENVQRADLNVLEEALSYKVLMEKFERTQENIAQTIGKSXSHVANXMRLLXLPDEVQSYLVSGELTAXHARAIAAAADPVALAKQIIEGGLSVRETEALARKAPNLSAGKSKGGRPPRVKDTDTQALESDLSSVLGLDVSIDHRGSTGTLTITYATLEQLDDLCNRLTRGI

Variants of: B1
Test: one-hybrid fitness for binding NBS DNA (the Noc-binding site; scaled: cognate 1, non-cognate 0); higher = stronger binding
Conditions: with NBS DNA site
Method in brief: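 Caulobacter ParB libraries with four specificity codons randomised were screened by bacterial one-hybrid selection in the E. coli USO strain, using a HIS3 reporter whose site lies 19 bp from the promoter. Selection ran for 48 hours at 37°C on M9 lacking histidine, with 0.1 mM IPTG and 5 mM 3-AT. Plasmids were Illumina-sequenced before and after selection, three replicate libraries were pooled, and variants with under 10 reads were dropped. Fitness is the log change in each variant's read ratio to wild type, rescaled against the cognate and non-cognate sites.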

one-hybrid fitness for binding NBS DNA, 0.234:
KRKG

one-hybrid fitness for binding NBS DNA, 0.508:
QRCY

one-hybrid fitness for binding NBS DNA, ≤ 0.2:
LMGC
EYVT
SNCG
NMTS
SPDK
STFW
HTNH
SYKS
GAKC
YNTD
AWDG
QCMG
AYGM
NAQG
FQTH
PDRL
CNIV
PTMY
PLPM
NLCS
QKHV
HLHD
VRCG
LSQC
ITVC
YLDR
LVAD
PGSS
VDYL
KDSL
PVPP
VGMC
ITHH
PPIR
LSNN
SYYP
CRCY
QFRG
QHAQ
YLTN
YSFS
EWSG
NMHF
EVRY
YTQL
AILL
LPQV
FLNY
YLSV
EYGW
QPQA
LTEW
QVVV
IDPS
DSGM
QWCC
VHAT
YVYT
VGSW
RVCF
AYKL
PEMR
MERK
RHFF
YQPY
YNSA
WTIR
ENMR
GTYL
RVKF
QEWG
DAFT
MGGS
VYEG
PCPC
WDLT
ICNS
EVLG
DTDS
CFRR
SDNG
EKIR
THER
ECMG
WAES
SDQF
PAVT
QNHF
WMHM
IANA
NYIS
LPNS
HGVG
MRAR
RFSL
LEYT
TPRL
MLPY
ISIR
FLCS
RKFV
SYPT
RAMC
SDRM
SNIY
KTDT
SAFR
PTVV
PRED
ADHC
AVLP
MHAV
QDWR
KTRY
AFYS
RESG
YDVR
TKYA
QTNP
CNST
IPYS
MGTW
RQSI
DSSQ
AQTL
DTGR
QGSP
FPEP
LIIC
NYTF
DLPS
IINN
VPCA
FPVG
AGPP
LLGC
QIHL
AAYI
RCGM
YLDF
LPEN
RFCA
WYKC
SSKY
GLRG
FRTL
ASQC
YSSL
SYCN
ADAI
AHKV
DFNR
HFGT
PSNT
AKIS
DLAY
CTTR
EGCK
KRIY
SGQN
RCAY
KIAT
NTTS
PQWR
KTSN
MGQM
NDRR
AEAV
KIEG
PLTN
CHNS
QCLG
NDLR
PVMG
AHMC
LKDL
SISC
TDVE
SIRK
WKSI
PWLY
LTKW
VHSS
HGKC
RCNF
TDTP
YFAF
HKYW
GVVV
FLTW
VIDS
NPTV
AVNC
HAGE
GVTT
NVLV
INWR
QPSL
RDDM
QWGG
KYYG
LYTD
EYDL
MLAY
AHVT
TRAP
MTMK
LNVC
VMET
LYPH
YPET
WAAS
MQNL
QYVC
ATTR
QLKF
VVWL
VMVC
TLGK
GRGV
FTFS
DVGR
PLLM
INCD
SDVD
ISGS
FSGC
SGAA
KTRE
KSRF
PVIP
CTSW
RNTK
IKTL
RYCP
MTHF
FCNS
SPTD
DYNM
LAWY
YQLC
MLIN
RYNE
PHVY
EQVT
TYAY
LRAQ
SQKK
TGRG
NMMR
RSME
IDYY
FSHR
ALTC
SSHN
VHKV
QNRC
IGNG
YFVT
GPHG
ETVS
DGVN
KSLS
QHEF
GGCG
IGAY
TYNH
RFIK
AGND
PMEI
KATV
PVCI
DKRR
KKTA
RNPG
LPAH
CRWC
PNTL
RPTE
ASAH
KMRS
DHLG
HTAT
QSEF
CTDL
KWSH
LMAV
LRGE
CNWR
HAFM

one-hybrid fitness for binding NBS DNA, 0.335:
RLKC

one-hybrid fitness for binding NBS DNA, 0.368:
RHGS

one-hybrid fitness for binding NBS DNA, 0.238:
RCQA

one-hybrid fitness for binding NBS DNA, 0.288:
NDKR

one-hybrid fitness for binding NBS DNA, 0.318:
QVQT

one-hybrid fitness for binding NBS DNA, 0.304:
QTNK

one-hybrid fitness for binding NBS DNA, 0.386:
QIRA

one-hybrid fitness for binding NBS DNA, 0.399:
QQKI

one-hybrid fitness for binding NBS DNA, 0.358:
QGKR

one-hybrid fitness for binding NBS DNA, 0.449:
QKSS

one-hybrid fitness for binding NBS DNA, 0.317:
QMLS

one-hybrid fitness for binding NBS DNA, 0.381:
RIHS

one-hybrid fitness for binding NBS DNA, 0.228:
REKR
QRQD
